According to the RNAGym collection of RNA variant scans (doi:10.1093/nar/gkz1192):
The source gives no read counts; variants with many changes may rest on few reads.

B1: CPEB3 Ribozyme (parent)
chain: UAACAGGGGGCCACAGCAGAAGCGUUCACGUCGCAGCCCCUGUCAGAUUCUGGUGAAUCUGCGAAUUCUGCUGUAUAUCUC

Variants of: B1
Test: self-cleavage, relative activity (ratio to wild type); higher = more cleavage; in vitro, sequencing
How it was run: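 For each CPEB3 ribozyme variant, relative activity is its cleaved/total read fraction divided by the unmutated ribozyme's. Barcoded error-prone PCR libraries were transcribed by T7 RNA polymerase (5 hours, 37°C) and held in DNase I for 15 min before an EDTA stop, with cleavage occurring throughout. Template-switching reverse transcription and Illumina sequencing were used to read the RNAs. A 5-read minimum applied, and results are the mean of three batches.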

| Variant | self-cleavage |
| --- | --- |
| G10C C14U G24A A56G U78A | 0.04 |
| G10C C23A U66C | 0.14 |
| G10C C23G C62A | 0.1 |
| G10C G16A U43C U58C | 0.14 |
| G10C G16U A56U | 0.06 |
| G10C G33A U43C | 0.12 |
| G10C G36A C40U U49C U72G | 0.06 |
| G10C U25G U26C A47G U49C | 0.18 |
| G10C U26A U49A G52A G61A C68U | 0.32 |
| G10C U31C U67A A77G | 0.08 |
| G10C U48C A56G A65U | 0.07 |
| G10C U49A C79A | 0.07 |
| G10C U49A U72A U78C C81A | 0.03 |
| G10C U49C A65G U67C | 0.12 |
| G10C U60A U76C | 0.14 |
| G10U A13U G19C U26A U43C U54C U67A | 0.04 |
| G10U A13U G24A A28G G52A | 0.04 |
| G10U A15G A47G | 0.24 |
| G10U A15U A45U U78C | 0.05 |
| G10U A18C A45G G61U A64G | 0.03 |
| G10U A18G U25C A35G U48A U80C | 0.04 |

| Variant | self-cleavage |
| --- | --- |
| G10U A18G U41A | 0.07 |
| G10U A18U G53A A57G | 0.05 |
| G10U A20U U26C A45U U51C G53C U80C | 0.15 |
| G10U A35G G52A C68G U69C | 0.07 |
| G10U A45G U58A U80C | 0.13 |
| G10U A45U G52C U60A | 0.12 |
| G10U C11A U31C G46A U54A | 0.22 |
| G10U C11A U41C A64G A75U | 0.07 |
| G10U C23G A47G U60G U72C | 0.14 |
| G10U C23U G73U | 0.07 |
| G10U C32U U43G U48C A56U U78C | 0.03 |
| G10U C37U U54C U66C | 0.08 |
| G10U G16A U26C U48A | 0.06 |
| G10U G19U C39A G42A | 0.1 |
| G10U G19U U49A U58C | 0.05 |
| G10U U25A U41C | 0.22 |
| G10U U25C U51A | 0.06 |
| G10U U25C U58C U80C | 0.15 |
| G10U U31A A35G G52C C59A U66C | 0.07 |
| G10U U31C U41A | 0.05 |
| G10U U41A U58C U60A U80C | 0.05 |

| Variant | self-cleavage |
| --- | --- |
| G10U U41C A56G U66G U67C | 0.07 |
| G10U U48C U60A | 0.1 |
| G10U U54C U72C | 0.4 |
| G10U U74C U80C | 0.24 |
| C11A A13C A15U A45G U51G U58C | 0.1 |
| C11A A13G A20G U25A C40U A65U | 0.04 |
| C11A A13U A21G A28C G73A | 0.11 |
| C11A A15G C17U U31C | 0.11 |
| C11A A15G U25C A64G U67C C68G A77G | 0.16 |
| C11A A15U A35U | 0.16 |
| C11A A15U U25C | 0.05 |
| C11A A18G A21G U26C U31A U49C U60C | 0.03 |
| C11A A18U A57G U74A | 0.47 |
| C11A A20G A28G U72A | 0.05 |
| C11A A20G C59A | 0.2 |
| C11A A21G U60C | 0.32 |
| C11A A21G U66C | 0.4 |
| C11A A21U G30A A45U G61A A75G | 0.03 |
| C11A A28G A56U C79U | 0.2 |
| C11A A35U A64G A65G U66C | 0.08 |
| C11A A45C U48C C59A U76C | 0.05 |

| Variant | self-cleavage |
| --- | --- |
| C11A A47U A56U U60C U69G | 0.04 |
| C11A A57G A65G U80C | 0.17 |
| C11A C12U U51C | 0.3 |
| C11A C14G U31A G53A U60C A65G | 0.04 |
| C11A C23U A28U U54C A57G | 0.11 |
| C11A C27U U67A | 0.2 |
| C11A C32U U69C A77G | 0.27 |
| C11A C37G C62G A65G U78C | 0.03 |
| C11A C38A U41A C62U U76A | 0.03 |
| C11A C39U U41A U43C U49G U60A | 0.09 |
| C11A G16A A56U | 0.3 |
| C11A G16A U43C G46U U51A C62U U67C | 0.05 |
| C11A G16C G24C U31C G46A A77G | 0.04 |
| C11A G22A A45U A47U U54G U66A A75G | 0.02 |
| C11A G22U U25C G73A U76C | 0.4 |
| C11A G33A U48C | 0.05 |
| C11A G33A U66C U67A | 0.05 |
| C11A U25A G33C C40U U41C U51C | 0.06 |
| C11A U26G U43C A56G A75U | 0.08 |
| C11A U41A U49C U54C G63U | 0.04 |
| C11A U41C U67C U76A | 0.06 |
